These results are taken from article PMC12136788.

The list shows a part of the results.

B1: 124030095_124033324_562_ncRNA_ENSMUSG00000049550_ENSMUST00000125340|mouse|control|control (ssRNA)
RNA: GGGAGUUCUACAGUCCGACGAUCCUUUGAAGAUCCACUAUUACCGAGUUGAGGAAAUCAAUCUGACUCUCCUGGGCUCUCUCAUCCUCUUCCGCCUGAGCAUCAGUGUUACCUGAGGAGCUGCUGAGCUGCCUCUUGUUCUCCCAACAGAGGAUUGAGCAUCA
B2: chr2:48026839:48026840:+_ENSG00000116062_ENST00000540021|hu_hu|hu_hu_hu_mus_False|68_78 (ssRNA)
RNA: GGGAGUUCUACAGUCCGACGAUCAUAGUGAGCCACUAGCGUCCUAAAUCUGGAACAAUGGCGAUCAUCUGAAAACUGGCCGAUGAAAAACUUGCCCAGUGAAGUGUCCACAAAGCAAACACCAUACACACGAGUGUGACCAGACAACAGAGGAUUGAGCAUCA
B3: chr2:198351390:198351391:-_ENSG00000144381_ENST00000345042|hu_hu|hu_hu_hu_mus_False|48_88 (ssRNA)
RNA: GGGAGUUCUACAGUCCGACGAUCUCAUUCCCACCCUCCACAGAAAGGCUGCUUAACAACUCUCAUGUGGUGACACAGCGCUACAGUCCUGAUUUUAACAGAACAGUAGAGAUGCCUCAGUGAUUUAAGUUGAAAGCAGGACACCAACAGAGGAUUGAGCAUCA
B4: 115336417_115336537_413_CDS_ENSG00000165185_ENST00000337530|human|control|control (ssRNA)
RNA: GGGAGUUCUACAGUCCGACGAUCUGGCCAGUGAUAAGCAUGGCCAGCACUACAGCCCCACAUUGCUGUCAGGUUCCCAUGGGAACCUUCAGAAAGCAAGUGUUUCAGGUUUGGAAUGAGGCUGCAAAUAGUCCCAUGGCUAUGCAACAGAGGAUUGAGCAUCA
B5: chr1:229440444:229440445:+_ENSG00000168118_ENST00000366690|hu_hu|FALSE|FALSE (ssRNA)
RNA: GGGAGUUCUACAGUCCGACGAUCAUAUUAACUGGAUUUAGUAGGUUUCCUUAAAAUGAACAGGAAACAAAAGAUGUGAAAAACAGGCAGUGAUGCCAUUAUACUGAAUUCCAGAAAAAGCACAGUACAAUGUGUUUUCUAGCACAACAGAGGAUUGAGCAUCA
B6: chr7:79842110:79842111:+_ENSG00000127955_ENST00000351004|hu_mus|FALSE|FALSE (ssRNA)
RNA: GGGAGUUCUACAGUCCGACGAUCUAUCGUGAGGGGGCUCUUUUUUAUUUUUUCUUCGAAGAGGUCCUUCUUGUUGAGGAAAAGGAUGAUGGACGUGUCUGUAAACCACUUGUUGUUACAGAUGCUAUCGAACAGCUUCAUGCUCAACAGAGGAUUGAGCAUCA
B7: chr12:493273:493274:-_ENSG00000073614_ENST00000399788|hu_mus|hu_hu_hu_mus_False|48_48 (ssRNA)
RNA: GGGAGUUCUACAGUCCGACGAUCUUUUCUCUCCACCACAGGGAUCUUCAAUGUAGAUCCUUGAAGUUCCCAAAAUUUUGCCAGUUGAUCCAAGAAAUCCAAUCUUACUCUAGUCAUUGCCUCAAGUUCAUUCAGGCGCUGGACCAACAGAGGAUUGAGCAUCA
B8: chr5:128440902:128440903:+_ENSG00000066583_ENST00000173527|hu_mus|hu_hu_hu_mus_True|18_38 (ssRNA)
RNA: GGGAGUUCUACAGUCCGACGAUCUUGAACGGUGCUGCCAAGUCCUUUGGGGUAUUGUUCCGUUAUGAUAACUGGAAUCCCUAAGAUCCGAGCUCCUUGCAACAAUCUCUGUCCCACGCUAAUAAUAUCCCCAAAGUAUUUGAUCAACAGAGGAUUGAGCAUCA
B9: chr2:223789231:223789232:+_ENSG00000123983_ENST00000392066|hu_hu|FALSE|FALSE (ssRNA)
RNA: GGGAGUUCUACAGUCCGACGAUCUUUUGAAAUCUGUUCCAUUUUGUAAUUAUAGGCCAGAAUAAACAGAUUACGUUGAAAACUACUCAUUUCACUGACUUUAUUCAUGACAUUUUUGUAGAUCCGAUCCAUGAUUUCCGGAACCAACAGAGGAUUGAGCAUCA
B10: chr1:23374948:23374949:-_ENSMUSG00000026158_ENSMUST00000027343|mus_hu|motif|central (ssRNA)
RNA: GGGAGUUCUACAGUCCGACGAUCCCAAAUCCUAAUACUCACAGAACACUAGGAAAGCAAAAACUGGCAUAUUAUGGGAACGGAAAAUGAGAAAGUGUUCCAUACUAUACUUAUUGGAACACAAUGUACAACAAAAGUGCUACUCAACAGAGGAUUGAGCAUCA
B11: chr4:113189463:113189464:+_ENSG00000138660_ENST00000274000|hu_hu|FALSE|FALSE (ssRNA)
RNA: GGGAGUUCUACAGUCCGACGAUCUACAGGAUUUACAAAUCCAGAAUACUCGGAAUUUCCAUUAUCAUCCAUUUCGGCACUAACAAAAUCAUUUUCCCACUCCAGCCCAUUGGAAUCAUCAGAGGCUGAUGUAGGAUUACUUCCCAACAGAGGAUUGAGCAUCA
B12: chr3:98235988:98235989:-_ENSG00000080822_ENST00000341181|hu_hu|FALSE|FALSE (ssRNA)
RNA: GGGAGUUCUACAGUCCGACGAUCUAAGCUUCGGCAAAUGCAAGCACAAAGUCCGAUCAAAGCCCCAAAGCACAUCAAACCUAAACUCACAAAAGGUAAAAGGAACUGGCAACGCCAAAGAUAGGUCCUAAGGAGAUCAAUCCCCAACAGAGGAUUGAGCAUCA
B13: chr7:43916975:43916976:-_ENSG00000106608_ENST00000402306|hu_mus|FALSE|FALSE (ssRNA)
RNA: GGGAGUUCUACAGUCCGACGAUCGCCAAACAUGGUGUUAAGGAGUGUAGAUUUCCCUGUGCCAGGCACCCCCAGGGCAGAGAGAACCACUAGCCGAGAUCUCCUGUCUAGGCGGGUAUGCAGCUCCUUGAGAAGCCCAGUGACCAACAGAGGAUUGAGCAUCA
B14: 122561622_122562076_2327_CDS_ENSMUSG00000020124_ENSMUST00000020334|mouse|control|control (ssRNA)
RNA: GGGAGUUCUACAGUCCGACGAUCUUUUAACUUCACAAAGGGCCUUUUUGGAGGUUUGUAUUCCACACUUUCAUGUUUUUCAAAAUCCUCUGCAGCAUUCUCAUCAAAGUAUCUCUUCUUCAAGUCAGGGUCCCAGUCCAAAGCCAACAGAGGAUUGAGCAUCA
B15: 7389461_7389807_1617_ncRNA_ENSMUSG00000031153_ENSMUST00000132456|mouse|control|control (ssRNA)
RNA: GGGAGUUCUACAGUCCGACGAUCCUGCUUCAGGUUGCUGAUGGUCUUCACGUGGCCAUCUCGCUCCUCCUGGGCCUGCUGGAGCUGUUCCCGAACAUUCUGAAGCUCUUCAUCCUUGCCCUUCAGCUCAGCGGCGUGCUCCUCCAACAGAGGAUUGAGCAUCA
B16: chr2:101883234:101883235:+_ENSG00000158435_ENST00000289382|hu_mus|FALSE|FALSE (ssRNA)
RNA: GGGAGUUCUACAGUCCGACGAUCGAAAUACUCCGUGAUCUGGCUUGACUGCAUCAGUUUCAGCAGCAUUUCUAUAGCGACUAAAGGGUUGUUCUCCACUAGAUCUGGAAGUUUCGCUGGAGUAAGGCCAAUGUGAUAAACAAGCAACAGAGGAUUGAGCAUCA
B17: chr6:114267272:114267273:-_ENSG00000196591_ENST00000368632|hu_mus|FALSE|FALSE (ssRNA)
RNA: GGGAGUUCUACAGUCCGACGAUCACAUCGGGCAACAUUCCGGAUUGUGUAGCCUCCUCCACCGAGCAUCAGCAAUGGCAAGUUAAAAGUUUUCACUACUUCUACACAUUUAGCAUGACCUUUGACAGUUAGAUUGAAACAACCCAACAGAGGAUUGAGCAUCA
B18: chr11:20101544:20101545:+_ENSMUSG00000020149_ENSMUST00000020358|mus_mus|FALSE|FALSE (ssRNA)
RNA: GGGAGUUCUACAGUCCGACGAUCUGACGCAGCCGCCGCCCCAACUCUCCGCGCCACAGGUAAUGGAAAGGGAGGAAUGAGCUAAGCUGUUCCGGUAGAGCAAACGUCGACCCCACUCCGACCCUUAGAACACAAUCAGCAGCCCAACAGAGGAUUGAGCAUCA
B19: chr1:225611761:225611762:-_ENSG00000143815_ENST00000272163|hu_mus|hu_hu_hu_mus_True|58_88 (ssRNA)
RNA: GGGAGUUCUACAGUCCGACGAUCCCAGGCCAUCGGCCUCUGACCACUUCACCAUCGACAAACUUCCUACUUGGCAUUUUCUAUAAUUAGUCUGGCCGCGCUCCGGCGGGAACUCCAGCCACUCCAGGACAGUCACCAGCAGCCCAACAGAGGAUUGAGCAUCA
B20: chr10:32300344:32300345:-_ENSG00000170759_ENST00000302418|hu_hu|FALSE|FALSE (ssRNA)
RNA: GGGAGUUCUACAGUCCGACGAUCAAGAAGAGUAGGUAGGAAACAGCUGUACAGGCCAGGUAUAAUUUAUACAUUUUUUUUAAAAGUUAUAAUUCUACAAUCCCAAGGGAGUAGAGGUUAUAGUCAUUGAAUGACUGCUUGAUACAACAGAGGAUUGAGCAUCA
B21: chr1:127300101:127300102:-_ENSMUSG00000026341_ENSMUST00000027579|perfect_dup|FALSE|FALSE (ssRNA)
RNA: GGGAGUUCUACAGUCCGACGAUCGGUGUACUGUUUGAUCCACUUUGACCCAUCGGUGUCAUACUUGUUAAACUCUUUUACUAAAUCUGGGCAGACAUAACUGUAGCGUUCCUUCACUGCUUUCGCAGUUUCCAAGGACUGCUCCAACAGAGGAUUGAGCAUCA
B22: chr2:68236527:68236528:-_ENSMUSG00000027030_ENSMUST00000102715|mus_mus|FALSE|FALSE (ssRNA)
RNA: GGGAGUUCUACAGUCCGACGAUCCAUGGAACCUCCACUUAGUAAUUUCAUGACCAGCCACAGCUCAUCUUUGACCACAAAGGAGGUGUAAUAAGUCACUACGUUGGGAUGGCUGCAUUGGCUCAUGGCUUGAAUUUCUUUCAGCAACAGAGGAUUGAGCAUCA

This assay has as its target T1, UNK ZnF1-3 (human, UniProt Q9C0B0 31-174).
T1 sequence: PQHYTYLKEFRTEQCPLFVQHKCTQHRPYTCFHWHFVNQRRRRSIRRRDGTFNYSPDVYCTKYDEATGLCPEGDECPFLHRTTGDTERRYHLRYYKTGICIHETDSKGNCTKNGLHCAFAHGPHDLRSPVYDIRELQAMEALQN
As to the kind of experiment: nsRBNS (natural sequence RNA bind-n-seq); RBNS binding buffer (assumed for nsRBNS): 25 mM Tris pH 7.5, 150 mM KCl, 3 mM MgCl2, 0.01% Triton X-100, 500 ug/ml BSA, 20 U/ml SUPERase-In, 4 C; UNK is unkempt and MSI1 is Musashi-1; names of the RNAs are library labels; protein concentration not given here; high values mean tight binding.
Consider B1, for which the binding signal was 0.856 enrichment R.

Consider B2, for which the binding signal was 1.22 enrichment R.

As to B3, the binding signal was found to be 0.872 enrichment R.

B4 displayed a binding signal of 0.692 enrichment R.

For the molecule B5, the binding signal turned out to be 0.816 enrichment R.

B6 yielded a binding signal of 0.617 enrichment R.

For the molecule B7, the binding signal worked out at 1.11 enrichment R.

The molecule B8 displayed a binding signal of 0.806 enrichment R.

With B9, the binding signal worked out at 0.52 enrichment R.

B10 came in with a binding signal of 1.03 enrichment R.

B11: the binding signal was found to be 0.556 enrichment R.

In the case of B12, the binding signal worked out at 2.13 enrichment R.

Take B13: the binding signal was 1.3 enrichment R.

Molecule B14 registered a binding signal of 0.939 enrichment R.

In turn, B15 showed a binding signal of 0.533 enrichment R.

For B16, the binding signal turned out to be 1.2 enrichment R.

Molecule B17 gave a binding signal of 1.56 enrichment R.

As to B18, the binding signal turned out to be 1.68 enrichment R.

For the molecule B19, the binding signal is 1.17 enrichment R.

With B20, the binding signal was 2.9 enrichment R.

Consider B21, for which the binding signal was determined as 0.437 enrichment R.

Consider B22, for which the binding signal turned out to be 0.924 enrichment R.
